# Data: PubChem BioAssay AID588855 (National Center for Advancing Translational Sciences (NCATS), 2011)
# Out of some 410,000 compounds screened, about 5,000 (1.2%) were called active. Inconclusive results, whose numbers are uncertain, are shown with a selection of clear calls. Calls come from the whole dose curve; as a rule, active = well fitted inhibition curve with a large enough effect; inconclusive = small, poorly fitted or top-dose-only effect; inactive = no such curve, though single readings can be large or run the other way. A potency beside an inconclusive call is a rough fit, not a confirmed value.
# Test: qHTS for Inhibitors of TGF-b; note: nearly all actives have a fitted effect of over 65% in size
# Settings: HepG2 CAGA-GFP TGF-b/SMAD3 reporter, GFP fluorescence, 18 h, TGF-beta stimulated, 500 pg/mL final; series mostly up to 46.1 µM; activity, negative = inhibition: at the top concentration
# Outline: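 TGF-beta reporter screen: HEPG2 CAGA-GFP, 1% FBS, 500 pg/mL TGF-beta final, 18 h; per-cell GFP summed per well; curves fitted and categorized by class.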
# % is set by controls: 0 for no effect and ±100 for the full control effect; potency is the fitted concentration of half-maximal effect; tags give direction and shape of the fitted curve.
Structure (SMILES),"activity, negative = inhibition",Potency
Cc1ccc(NC(=O)N2CCN(Cc3nc4ccc(C)cc4o3)CC2)cc1,inactive: -8.02%,–
O=C1C(=O)N(C2CCNCC2)CCN1Cc1ccccc1,inactive: -21.6%,–
CCOC(=O)C1=CCN(S(=O)(=O)c2ccc(F)cc2)C1c1cccc(C)c1 (stereo not drawn),–,"inconclusive: 17.8 µM [inhibitor, single point]"
O=Cc1sc(Nc2ccccc2)nc1Cl,–,"inconclusive: 35.5 µM [inhibitor, single point]"
O=C(c1cc([N+](=O)[O-])ccc1N1CCOCC1)N1CCCC1,inactive: 0.766%,–
Fc1cccc(NC(=S)NCCc2ccccc2)c1,inactive: -25%,–
Cc1cccc(/C=N\NC(=O)c2ccc(Cl)cc2)c1O,inactive: -20.9%,–
CCOC(=O)c1c(S(=O)(=O)NCC(=O)Nc2ccc(C(C)=O)cc2)c(C)n(C)c1C,–,"inconclusive: 6.31 µM [inhibitor, single point]"
Fc1ccc(-c2csc(=Nc3cccc(C(F)(F)F)c3)n2Cc2ccc3c(c2)OCO3)cc1,–,"inconclusive: 1.12 µM [inhibitor, full curve, poor fit]"
O=C(NCC(=O)N(CC1CCCO1)C(C(=O)NC1CCCCC1)c1cccnc1)c1cccs1 (stereo not drawn),–,"inconclusive: 1.41 µM [inhibitor, full curve, poor fit]"
Cc1cc(C)c(C(=O)Nc2ccc(Br)c(C(F)(F)F)c2)c(C)c1,–,"inconclusive: 22.4 µM [inhibitor, single point]"
COc1ccc2c(c1)/C(=C\c1cccc(/C=C3/C(=O)Nc4ccc(OC)cc43)n1)C(=O)N2,–,active: 1.26 µM
CCCCNc1nc(N)nc(-c2cc(Cl)ccc2O)n1,–,"inconclusive: 12.6 µM [inhibitor, partial curve, poor fit]"
COc1cccc(NC(=O)CCCn2c(=O)c3cccn3c3cccnc32)c1,inactive: -12.9%,–
Cn1c(SCC(=O)Nc2cccc(Br)c2)nnc1-c1cc2ccccc2o1,inactive: -13.7%,–
COc1ccc(C)cc1NC(=O)CN(c1ccc(F)cc1)S(C)(=O)=O,–,"inconclusive: 11.2 µM [inhibitor, partial curve, poor fit]"
CCCCCCC(C)NC(=S)Nc1cc(S(=O)(=O)N(C)C)ccc1C (stereo not drawn),–,"inconclusive: 35.5 µM [inhibitor, single point]"
CCOC(=O)c1cnc(-n2nc(C)cc2C)nc1NC,–,"inconclusive: 20 µM [inhibitor, single point]"
Cn1nnnc1SCCCNCc1cc(Br)ccc1OCc1ccccc1F,–,"inconclusive: 35.5 µM [inhibitor, single point]"
Cc1cc(C)n2nc(NCc3cccc(Br)c3)nc2n1,inactive: -15.2%,–
O=c1c2c3c(sc2ncn1Cc1ccc(F)cc1)CCC3,inactive: 3.57%,–
Cc1ccc(-n2cc(CN(C)Cc3nccn3C)c(-c3ccc(F)cc3)n2)cc1,–,"inconclusive: 22.4 µM [inhibitor, single point]"
Cc1cc(Cl)ccc1OC(C)C(=O)Nc1ccc(C(=O)Nc2ccccc2C(=O)O)cc1 (stereo not drawn),–,"inconclusive: 7.94 µM [inhibitor, partial curve]"

Structure (SMILES),"activity, negative = inhibition",Potency
Cc1csc(NC(=O)CSc2nc(=O)n(CCN(C)C)c3c2CCCC3)n1,–,"inconclusive: 6.31 µM [inhibitor, single point]"
CCCn1c2ccccc2c2cnn(CC(=O)NCCCN(CC)c3ccccc3)c(=O)c21,–,"inconclusive: 11.2 µM [inhibitor, partial curve, poor fit]"
Cc1onc(-c2ccccc2)c1C(=O)NCC(O)c1ccccc1 (stereo not drawn),inactive: -2.68%,–
CN(C)n1cccc1/C=C(\C#N)S(=O)(=O)c1ccc(Cl)cc1,–,"inconclusive: 3.98 µM [inhibitor, partial curve]"
Cc1cc(C)n2nc(-c3cccnc3)nc2n1,–,"inconclusive: 25.1 µM [inhibitor, single point]"
Cc1ccc(OCCN(C)C(=O)C2CCC(=O)N(CC3CCCCC3)C2)cc1 (stereo not drawn),–,"inconclusive: 20 µM [inhibitor, partial curve, poor fit]"
Cc1cc(C)cc(CC(Cc2nc3ccccc3[nH]2)c2nc3ccccc3[nH]2)c1 (stereo not drawn),–,"inconclusive: 12.6 µM [inhibitor, partial curve, poor fit]"
C=CCSc1n[nH]c(-c2ccc(OCCC)cc2)n1,inactive: 0.437%,–
O=C(c1ccc(S(=O)(=O)Cc2ccccc2Cl)c([N+](=O)[O-])c1)N1CCOCC1,–,"inconclusive: 35.5 µM [inhibitor, single point]"
COc1ccc(CNCc2ccc3c(c2)OCO3)c(OC)c1OC,–,"inconclusive: 6.31 µM [inhibitor, single point]"
c1ccc(-c2nc(NCc3cccnc3)c3ccccc3n2)cc1,inactive: -6.11%,–
CC(=O)N(CCC1(C(C)C)CCOC(C)(C)C1)C(C)c1cccs1 (stereo not drawn),–,"inconclusive: 3.55 µM [inhibitor, partial curve, poor fit]"
Cc1nn(-c2nc3ccccc3s2)c(C)c1Oc1ccccc1O,–,"inconclusive: 17.8 µM [inhibitor, partial curve, poor fit]"
O=C(CN(C1CCCCC1)S(=O)(=O)c1ccc(F)cc1)NCC1CCCO1 (stereo not drawn),–,active: 4.47 µM
COc1ccc(-c2cc3ncc(C(=O)c4cc([N+](=O)[O-])ccc4O)cn3n2)cc1,–,"inconclusive: 7.94 µM [inhibitor, partial curve, poor fit]"
Cc1[nH]c(=S)n(CC2CCCO2)c1C (stereo not drawn),–,"inconclusive: 6.31 µM [inhibitor, single point]"
O=C1C(NS(=O)(=O)c2cccs2)=C(N2CCOCC2)C(=O)c2ccccc21,–,"inconclusive: 35.5 µM [inhibitor, single point]"
C[C@H]1CCC[C@]2(C)C[C@H]3OC(=O)C(CN4CCCCCC4)[C@H]3C=C12 (stereo partly drawn),–,"inconclusive: 35.5 µM [inhibitor, single point]"
O=[N+]([O-])c1ccc(CSCc2ccc([N+](=O)[O-])cc2)cc1,–,"inconclusive: 3.55 µM [inhibitor, single point]"
CCc1ccc(NC(=O)c2ccc(Cn3nc(N4CCN(c5ccccc5)CC4)ccc3=O)o2)cc1,–,"inconclusive: 0.1 µM [inhibitor, full curve, poor fit]"
O=C(c1ccc2c(c1)N(Cc1c(F)cccc1Cl)C(=O)c1ccccc1S2)N1CCCC1,–,"inconclusive: 6.31 µM [inhibitor, partial curve, poor fit]"
O=C(COc1ccc(Br)cc1)N1CCN(S(=O)(=O)/C=C/c2ccccc2)CC1,–,"inconclusive: 35.5 µM [inhibitor, single point]"
COc1ccc(/C=N/OCC(=O)N2CCCC2)c(OC)c1,inactive: 18.4%,–

Structure (SMILES),"activity, negative = inhibition",Potency
CCCNC(=O)c1ccc2c(=O)c(O)c(-c3ccsc3)[nH]c2c1,–,"inconclusive: 10 µM [inhibitor, partial curve, poor fit]"
O=C(CCC1COc2ccccc2O1)Nc1ccc(Cl)cn1 (stereo not drawn),–,"inconclusive: 17.8 µM [inhibitor, single point]"
CCOC(=O)C1(CCCc2ccccc2)CCN(C(=O)c2n[nH]c(CC)c2C)CC1,–,"inconclusive: 35.5 µM [inhibitor, single point]"
CCOc1cccc(OCCOCCN2CCCC2)c1,inactive: 16.5%,–
COc1ccccc1N1CCN(C(=O)Cn2c(=O)nc(-c3ccccc3)c3ccccc32)CC1,–,"inconclusive: 11.2 µM [inhibitor, single point]"
COc1ccc(OC)c(/C=N/NC2=NS(=O)(=O)c3ccccc32)c1,inactive: 3.59%,–
CCOC(=O)c1ccc(NC(=O)Cn2cccc2)cc1,inactive: -4.75%,–
COCCOC(=O)N1CCCCC1c1cc(C(=O)NCc2ccc(Cl)c(Cl)c2)no1 (stereo not drawn),–,"inconclusive: 6.31 µM [inhibitor, partial curve]"
CCOC(=O)c1sc(=S)n(CC)c1NC(=O)c1ccccc1C,–,"inconclusive: 3.98 µM [inhibitor, partial curve, poor fit]"
Cc1ccc(NC(=O)Cn2c(=O)n(CCC(C)C)c(=O)c3cccnc32)cc1C,–,"inconclusive: 2.51 µM [inhibitor, partial curve, poor fit]"
CCC(C(=O)NCCC(C)C)N(C(=O)Cn1nnc(-c2ccc(C)cc2)n1)c1cccc(O)c1 (stereo not drawn),–,"inconclusive: 20 µM [inhibitor, partial curve, poor fit]"
c1ccc(OCCNc2nc(NCC3CC3)nc3cc(-c4ccccc4)sc23)cc1,–,"inconclusive: 25.1 µM [inhibitor, single point]"
COc1ccc(Cl)cc1NC(=O)NC1CCCCC1,inactive: 6.98%,–
CCN1CCN(Cc2ccc(NC(=O)c3ccc(C)c(NC(=O)c4ccc5n[nH]nc5c4)c3)cc2C(F)(F)F)CC1,–,"inconclusive: 22.4 µM [inhibitor, single point]"
Cc1nc(Nc2ncc(C(=O)Nc3c(C)cccc3Cl)s2)cc(N2CCN(CCO)CC2)n1,–,active: 1.26 µM
Cc1ccccc1OCCSc1nnc(-c2cccs2)o1,inactive: -14.7%,–
CC(C)OC(=O)c1ccc(NCc2cc(O)ccc2O)cc1,–,"inconclusive: 35.5 µM [inhibitor, single point]"
CCc1ccccc1S(=O)(=O)Cc1ccc(C(=O)N2CCN(c3ccccc3OC)CC2)o1,–,"inconclusive: 22.4 µM [inhibitor, single point]"
Nc1nc(CSC(=S)N2CCN(c3ccccc3)CC2)nc(Nc2ccccc2)n1,–,"inconclusive: 6.31 µM [inhibitor, single point]"
CC(=O)c1c[nH]c(C(=O)NCC2CCCO2)c1 (stereo not drawn),–,"inconclusive: 6.31 µM [inhibitor, single point]"
O=C(CN1C(=O)C2CCCCN2C(=O)c2ccccc21)Nc1ccc(F)cc1 (stereo not drawn),–,"inconclusive: 6.31 µM [inhibitor, single point]"
CC(Oc1ccccc1)C(=O)Nc1ccc(F)c(S(=O)(=O)N2CCOCC2)c1 (stereo not drawn),inactive: -3.32%,–
